Results taken from the antibiotic and cytotoxicity screens of Wong et al. (2023).
Some of the results follow.

tested on: HSkMC (human skeletal muscle cells); assay: cytotoxicity call (relative viability < 0.9); settings: 10 µM

Question: Which cytotoxicity call does the source give for COc1ccc(CN(C)C[C@@H]2OCCCC[C@H](C)Oc3ccc(NC(=O)Cc4ccccc4)cc3C(=O)N([C@H](C)CO)C[C@H]2C)cc1 here?
Answer: inactive

Question: How did the cytotoxicity call turn out when C[C@@H]1CCCCO[C@H](CN(C)S(=O)(=O)c2ccccc2)[C@H](C)CN([C@H](C)CO)C(=O)c2cc(NC(=O)Nc3ccccc3)ccc2O1 was run?
Answer: inactive

Question: For COc1ccc(S(=O)(=O)Nc2ccc3c(c2)C(=O)N([C@H](C)CO)C[C@H](C)[C@H](CN(C)S(=O)(=O)c2ccccc2)O3)cc1, which cytotoxicity call is on record?
Answer: inactive

Question: How did the cytotoxicity call turn out when OCC1OC(Oc2ccc(O)cc2)C(O)C(O)C1O (stereo not given) was run?
Answer: inactive

Question: How did the cytotoxicity call turn out when O=C1CSC(=Nc2nccs2)N1 was run?
Answer: inactive

Question: N[C@H](CSCCB(O)O)C(=O)O was tested. Which cytotoxicity call did it give?
Answer: inactive

Question: With COc1ccc(S(=O)(=O)N(C)C[C@@H]2OCCCC[C@H](C)Oc3ccc(NS(=O)(=O)c4ccc(Cl)cc4)cc3C(=O)N([C@@H](C)CO)C[C@@H]2C)cc1 as the compound, how does the cytotoxicity call read?
Answer: inactive

Question: For COc1ccc(NC(=O)Nc2cccc3c2O[C@H](CN(C)Cc2ccc(Cl)c(Cl)c2)[C@H](C)CN([C@@H](C)CO)C3=O)cc1, which cytotoxicity call is on record?
Answer: inactive

Question: With COc1ccc(S(=O)(=O)Nc2ccc3c(c2)C(=O)N([C@H](C)CO)C[C@H](C)[C@H](CN(C)C(=O)Nc2c(C)noc2C)OCCCC[C@H](C)O3)cc1 as the compound, how does the cytotoxicity call read?
Answer: inactive

Question: How did the cytotoxicity call turn out when COc1ccccc1NC(=O)N(C)C[C@@H]1Oc2cc(Br)ccc2S(=O)(=O)N([C@@H](C)CO)C[C@H]1C was run?
Answer: inactive

Question: For COc1ccc(NC(=O)N(C)C[C@@H]2OCCCC[C@@H](C)Oc3ccc(NC(=O)Nc4ccccc4)cc3C(=O)N([C@@H](C)CO)C[C@@H]2C)cc1, which cytotoxicity call is on record?
Answer: inactive

Question: O=P(O)(O)C(O)(Cn1ccnc1)P(=O)(O)O was tested. Which cytotoxicity call did it give?
Answer: inactive

Question: How did the cytotoxicity call turn out when C[C@@H]1CN([C@@H](C)CO)C(=O)CCCn2cc(nn2)CO[C@@H]1CN(C)Cc1cccc2c1OCCCO2 was run?
Answer: inactive

Question: For O=C(C[C@@H]1C[C@@H]2c3cc(NS(=O)(=O)c4ccc(F)cc4)ccc3O[C@@H]2[C@@H](CO)O1)NCc1ccncc1, which cytotoxicity call is on record?
Answer: inactive

Question: How did the cytotoxicity call turn out when CN1CCN(C(=O)C[C@@H]2CC[C@@H]3[C@H](COc4ccc(NC(=O)C5CCCCC5)cc4C(=O)N3C)O2)CC1 was run?
Answer: inactive

Question: How did the cytotoxicity call turn out when COc1ccc(C(=O)Nc2cccc(CN3C(=O)[C@]4(O[C@H](CC(=O)N(CCO)Cc5ccccc5)[C@@H]([Si](C)(C)c5ccc(OC)cc5)[C@@H]4C)c4ccccc43)c2)cc1 was run?
Answer: inactive

Question: With N[C@@H]1CCCN(c2c(Br)cnc3[nH]cc(NC(=O)C4CC4)c23)C1 as the compound, how does the cytotoxicity call read?
Answer: active

Question: With CCOC(=O)c1c[nH][nH]c1=O as the compound, how does the cytotoxicity call read?
Answer: inactive

Question: C[C@@H]1CN([C@H](C)CO)C(=O)c2cc(NC(=O)CCN3CCOCC3)ccc2O[C@H]1CN(C)S(=O)(=O)c1cn(C)cn1 was tested. Which cytotoxicity call did it give?
Answer: inactive

Question: For Cc1ccc(S(=O)(=O)N(C)C[C@@H]2OCCCC[C@H](C)Oc3ccc(NC(=O)Cc4ccccc4)cc3C(=O)N([C@@H](C)CO)C[C@H]2C)cc1, which cytotoxicity call is on record?
Answer: inactive

Question: With CCCCCCc1ccc(O)cc1O as the compound, how does the cytotoxicity call read?
Answer: active

Question: For Cc1cccc(NC(=O)C[C@H]2NCCNC2=O)c1, which cytotoxicity call is on record?
Answer: inactive

Question: For COC(=O)Nc1c(C)cc(C)cc1C, which cytotoxicity call is on record?
Answer: inactive

Question: COCCOC(=O)N1C(=O)[C@@]2(c3cc(C#CC4=CCCCC4)ccc31)[C@H](c1ccccc1OCCO)N1[C@H](c3ccccc3)[C@H](c3ccccc3)OC(=O)[C@H]1[C@@H]2C(=O)NC[C@H](O)c1ccccc1 was tested. Which cytotoxicity call did it give?
Answer: inactive

Question: With CC(=O)N1[C@@H]2Cn3c(ccc(-c4ccccc4)c3=O)[C@H]1[C@@H](C(=O)N1CCN(C)CC1)[C@@H]2CO as the compound, how does the cytotoxicity call read?
Answer: inactive

Question: C/C=C/C(=O)c1cc(Cl)ccc1O was tested. Which cytotoxicity call did it give?
Answer: inactive

Question: With O=C(NC1(c2ccccc2)CC1)c1c(CN2CCC(N3CCCCC3)CC2)c(-c2cccc(C(F)(F)F)c2)nc2cc(Br)ccc12 as the compound, how does the cytotoxicity call read?
Answer: active

Question: How did the cytotoxicity call turn out when CC(C)NC(=O)N(C)C[C@@H]1OCCCC[C@@H](C)Oc2ccc(NC(=O)CCCCCC(=O)Nc3ccccc3N)cc2C(=O)N([C@H](C)CO)C[C@H]1C was run?
Answer: inactive

Question: With Cn1nnnc1SCC1=C(C(=O)[O-])N2C(=O)C(NC(=O)C(O)c3ccccc3)C2SC1.[Na+] (stereo not given) as the compound, how does the cytotoxicity call read?
Answer: inactive

Question: With COc1ccccc1NC(=O)N(C)C[C@H]1Oc2cc(Br)ccc2S(=O)(=O)N([C@H](C)CO)C[C@H]1C as the compound, how does the cytotoxicity call read?
Answer: inactive

Question: For O=C(C[C@H]1CC[C@H]2[C@@H](COC[C@@H](O)CN2S(=O)(=O)c2cccc(Cl)c2)O1)N1CCOCC1, which cytotoxicity call is on record?
Answer: inactive

Question: How did the cytotoxicity call turn out when O=C(O)CNC(=O)C(=O)O was run?
Answer: active

Question: With CCS(=O)(=O)Nc1ccc2c(c1)CC(=O)N2 as the compound, how does the cytotoxicity call read?
Answer: inactive

Question: For C[C@H](C(=O)N(C)C[C@H]1OCc2ccccc2-c2c(n(C)c3ccccc23)C(=O)N([C@@H](C)CO)C[C@@H]1C)c1ccccc1, which cytotoxicity call is on record?
Answer: inactive

Question: Which cytotoxicity call does the source give for COc1ccc(S(=O)(=O)N(C)C[C@@H]2OCCCC[C@@H](C)Oc3ccc(NS(=O)(=O)c4cn(C)cn4)cc3C(=O)N([C@@H](C)CO)C[C@@H]2C)cc1 here?
Answer: inactive

Question: With Cc1noc(C)c1S(=O)(=O)N(C)C[C@H]1OCCCC[C@H](C)Oc2ccc(NC(=O)Nc3ccc(C(F)(F)F)cc3)cc2C(=O)N([C@@H](C)CO)C[C@@H]1C as the compound, how does the cytotoxicity call read?
Answer: inactive

Question: Which cytotoxicity call does the source give for O=C(C[C@@H]1CC[C@H]2[C@@H](COC[C@@H](O)CN2Cc2cc(F)ccc2F)O1)N[C@@H]1CCN(Cc2ccccc2)C1 here?
Answer: inactive

Question: With Cc1ccc(S(=O)(=O)Nc2ccc3c(c2)C(=O)N([C@@H](C)CO)C[C@@H](C)[C@@H](CN(C)Cc2ccccc2)OCCCC[C@@H](C)O3)cc1 as the compound, how does the cytotoxicity call read?
Answer: inactive

Question: With C[C@H](CO)N1C[C@H](C)[C@H](CN(C)C(=O)Nc2ccc(F)cc2)OCCCC[C@H](C)Oc2ccc(NC(=O)c3ccncc3)cc2C1=O as the compound, how does the cytotoxicity call read?
Answer: inactive

Question: How did the cytotoxicity call turn out when O=c1c(-c2ccc(O)cc2)coc2cc(O)cc(O)c12 was run?
Answer: inactive
